In PubChem BioAssay AID2147 (National Center for Advancing Translational Sciences (NCATS), 2009):
Among all 230,000 compounds or so, about 3,600 (1.6%) were called active. The inconclusive results got no clear call from the source; some entries with a clear call stand among them for comparison. The call rests on the fitted dose curve; in most records, active means well fitted inhibition curve with a large enough effect (not every such curve was filed as active); inconclusive means small, poorly fitted or top-dose-only effect, or another doubt; inactive means no such curve, though single readings can be large or run the other way. A potency beside an inconclusive call is a rough fit, not a confirmed value.

Molecular target: Lysine-specific demethylase 4E (Homo sapiens) (UniProt B2RXH2)
Assay: qHTS Assay for Inhibitors of Human Jumonji Domain Containing 2E (JMJD2E)
Details: JMJD2E catalytic domain, FDH-coupled NADH fluorescence (FDH is formaldehyde dehydrogenase); series mostly up to 57.1 µM
Further: nearly all actives have a fitted effect of over 50% in size.
Potency means the concentration at half of the fitted maximal effect; tags describe the fitted curve by direction and shape.

Sequence of UniProt B2RXH2 (B2RXH2 whole entry, looked up, the tested form may be a part): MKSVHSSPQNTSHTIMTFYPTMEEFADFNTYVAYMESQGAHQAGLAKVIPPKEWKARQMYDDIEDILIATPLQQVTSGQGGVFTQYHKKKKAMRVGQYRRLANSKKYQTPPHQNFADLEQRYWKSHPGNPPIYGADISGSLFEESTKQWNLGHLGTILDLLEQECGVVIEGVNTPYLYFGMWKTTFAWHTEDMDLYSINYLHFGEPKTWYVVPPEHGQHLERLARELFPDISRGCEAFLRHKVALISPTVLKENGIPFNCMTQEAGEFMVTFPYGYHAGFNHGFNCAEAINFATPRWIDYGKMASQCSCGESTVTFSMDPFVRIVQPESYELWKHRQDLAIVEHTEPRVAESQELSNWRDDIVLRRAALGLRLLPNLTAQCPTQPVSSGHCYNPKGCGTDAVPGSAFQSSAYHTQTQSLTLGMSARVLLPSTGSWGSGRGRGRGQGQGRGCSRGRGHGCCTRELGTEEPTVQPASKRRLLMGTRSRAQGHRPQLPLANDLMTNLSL

SMILES	Potency
Cc1ccc2[nH]c(=O)c(CN(CCN3CCOCC3)C(=O)Nc3ccccc3F)cc2c1	inconclusive: 39.8 µM [inhibitor, single point]
Cc1ccc(C(=O)N/C(=C/c2ccc(C(C)C)cc2)C(=O)NCCCN2CCOCC2)cc1	inactive
CCC1(C)Cc2c(C#N)c(N)n(-c3ccccc3)c(=S)c2CO1 (stereo unspecified)	inactive
N#CC1=C(N)Oc2cc(N)ccc2C1c1ccc(F)cc1 (stereo unspecified)	inconclusive: 25.1 µM [inhibitor, single point]
CN1CCN(NC(=S)Nc2ccc(OC(F)F)cc2)CC1	inactive
COCCn1c(C)cc(C2=NNC(=NC(C)(C)C)SC2)c1C	inconclusive: 25.1 µM [inhibitor, single point]
CC(=O)Nc1ccc(S(=O)(=O)NCC(=O)OCc2cc(=O)oc3ccc4ccccc4c23)cc1	inconclusive: 31.6 µM [inhibitor, partial curve]
CC1(C)CC(=O)c2sc(NC(=O)CCS(=O)(=O)c3ccccc3)nc2C1	inconclusive: 35.5 µM [inhibitor, single point]
Cc1cn2c(-c3ccncc3)nnc2s1	inconclusive: 28.2 µM [inhibitor, partial curve]
CCOCCn1c(SCCCc2ccccc2)nc2c1c(=O)[nH]c(=O)n2C	inactive
CC(C)N(Cc1cc2ccccc2[nH]c1=O)C(=O)C1CCCCC1	inconclusive: 35.5 µM [inhibitor, single point]
COc1ccc2cc(C(=O)C3CCCN(C(=O)c4snnc4C)C3)ccc2c1 (stereo unspecified)	inconclusive: 31.6 µM [inhibitor, partial curve]
COc1ccc(CC(=O)NCC(=O)N/N=C(/C)c2ccco2)cc1	inactive
CCCCOC(=O)Cn1c(=O)c2c(nc3n2CCCCN3c2ccc(C)cc2)n(C)c1=O	inconclusive: 35.5 µM [inhibitor, single point]
O=C(Cn1cnc2c(nnn2Cc2ccccc2)c1=O)NCc1ccco1	inactive
Brc1ccc(OCCOc2cccc3cccnc23)cc1	inconclusive: 39.8 µM [inhibitor, single point]
CC[C@H](C)C(=O)O[C@H]1CCC=C2C=C[C@H](C)[C@H](CC[C@@H]3C[C@@H](O)CC(=O)O3)[C@H]21	inactive
CCC(c1nnc(SCC(=O)Nc2ccc(C(C)=O)cc2)n1C1CCCCC1)N(C)C (stereo unspecified)	inactive
Cc1ccc(-c2csc(=S)n2CC(=O)OCC(=O)NC(C)C(C)C)cc1 (stereo unspecified)	inactive
O=[N+]([O-])c1ccccc1C1Nc2cccc3cccc(c23)N1	inconclusive: 0.891 µM [inhibitor, full curve]
COc1ccc(-c2nc3c([nH]2)c(=O)n(C)c(=O)n3C)c(OC)c1	inconclusive: 7.94 µM [inhibitor, partial curve]
CC(C)c1nc2oc3c(NCCO)ncnc3c2c2c1COC(C)(C)C2	inconclusive: 12.6 µM [inhibitor, partial curve]
COc1ccccc1COn1c(=O)c(-c2ccco2)[n+]([O-])c2ccccc21	inconclusive: 35.5 µM [inhibitor, single point]
C=CCn1c(SCc2ccc(C(=O)O)cc2)nc2sc(C)c(C)c2c1=O	inconclusive: 39.8 µM [inhibitor, single point]

SMILES	Potency
O=C(O)c1c[nH]c2cc(C(F)(F)F)ccc2c1=O	inactive
O=S(=O)(c1ccccc1)N1CCC(N2CCCCCC2)CC1	inconclusive: 25.1 µM [inhibitor, single point]
CCN1CCN(C(=O)CSCc2nc(-c3ccc(OC)c(OC)c3)oc2C)CC1	inconclusive: 28.2 µM [inhibitor, partial curve]
Nc1cccc(-c2ccc(CO)o2)c1	inconclusive: 25.1 µM [inhibitor, partial curve]
COc1cc(NC(=O)COc2ccccc2[N+](=O)[O-])ccc1NC(=O)c1cccs1	inactive
c1ccc(-n2c(-c3cccs3)nc3nc4ccccc4nc32)cc1	inconclusive: 3.55 µM [inhibitor, full curve]
COc1ccc(OC)c(NC(=O)C2CCN(c3ncccn3)CC2)c1	inconclusive: 31.6 µM [inhibitor, single point]
O=C(CCN1CCOCC1)Nc1cccc(Br)c1	inactive
Cc1ccc(NC(=O)c2cc(-c3ccccc3)nn2-c2ccccc2)c(Br)c1	inconclusive: 35.5 µM [inhibitor, single point]
O=[N+]([O-])c1ccc(N2CCCCC2)cc1NCCOc1ccccc1	inactive
CCOC(=O)c1ccccc1NC(=O)CSc1ncc(C(=O)OCC)c(N)n1	inconclusive: 39.8 µM [inhibitor, single point]
O=C(CC(NCCc1ccccc1)C(=O)O)Nc1ccc(O)cc1 (stereo unspecified)	inactive
COc1ccccc1CNC(=O)c1cn(C)c2ccc(S(=O)(=O)N3CCCCC3)cc2c1=O	inactive
COc1ccccc1Nc1nc(N)nc(-c2cc3ccccc3o2)n1	inconclusive: 35.5 µM [inhibitor, single point]
O=C(/C=C/c1ccco1)NC(=S)Nc1ccc(Cl)cn1	inconclusive: 25.1 µM [inhibitor, single point]
Cc1ccc(C)c(N2CCN(C(=O)c3ccc(Cn4c(=S)[nH]c5ccc(N6CCOCC6)cc5c4=O)cc3)CC2)c1	inconclusive: 15.8 µM [inhibitor, partial curve]
COc1cc(NS(=O)(=O)c2ccc(F)cc2)c(C(=O)O)cc1OC	inconclusive: 35.5 µM [inhibitor, single point]
N=c1c2c(-c3ccccc3)c(-c3ccccc3)n(Cc3ccccc3)c2ncn1CCO	inconclusive: 39.8 µM [inhibitor, single point]
NS(=O)(=O)c1cccc(NC(=O)c2cc3ccccc3o2)c1	inconclusive: 35.5 µM [inhibitor, single point]
Cc1ccc2c(c1)N/C(=C(\C=C(/Cl)[N+](=O)[O-])[N+](=O)[O-])N2	inconclusive: 31.6 µM [inhibitor, single point]
CCc1nc(Cl)c(C#N)c2c1CCCC2	inactive
Cc1ccc(S(=O)(=O)Nc2cc3c(C(=O)Nc4ccccc4)c(C)oc3c3ccccc23)cc1	inactive
Cc1cccc(NC(=O)Cn2cnc3sc(C)c(S(=O)(=O)N4CCC(C)CC4)c3c2=O)n1	inactive
COC(=O)c1ccc2c(=O)n(NC(C)=O)c(=S)[nH]c2c1	inconclusive: 25.1 µM [inhibitor, single point]

SMILES	Potency
CCC1Oc2ccccc2N(CC(=O)NCc2ccco2)C1=O (stereo unspecified)	inactive
Nc1ccc(-c2ccc(C(=O)O)s2)cn1	inconclusive: 2.82 µM [inhibitor, full curve]
CC(=O)c1ccc(NC(=O)CO/N=C(\C)c2cccs2)cc1	inactive
N#Cc1nc(-c2ccccc2)oc1NCCN1CCCCC1	inconclusive: 28.2 µM [inhibitor, partial curve]
O=[N+]([O-])c1cc(S(=O)(=O)N2CCCC2)ccc1N/N=C/c1cccnc1	inactive
CC(C)n1nc(C(=O)Nc2nnc(SCc3c(Cl)cccc3Cl)s2)c2ccccc2c1=O	inconclusive: 39.8 µM [inhibitor, single point]
CN(C)c1ccc(-c2nc(N(C)Cc3ccco3)c3ccccc3n2)cc1	inconclusive: 28.2 µM [inhibitor, partial curve]
COc1ccc(C2=NOC(C(=O)Nc3cccnc3)C2)cc1OC (stereo unspecified)	inconclusive: 35.5 µM [inhibitor, single point]
CCN(c1ccccc1)S(=O)(=O)c1cc(C(=O)Nc2ccccc2Cl)ccc1F	inconclusive: 8.91 µM [inhibitor, single point]
CS(=O)(=O)c1ccc2nc(NC(=O)c3cccc(NS(=O)(=O)c4ccc(F)c(F)c4)c3)sc2c1	inconclusive: 35.5 µM [inhibitor, single point]
CCn1c(SCc2nc(-c3ccccc3)no2)nnc1-c1ccco1	inactive
O=C(Cc1ccc(S(=O)(=O)N2CCOCC2)s1)Nc1nc2c(s1)CCCC2	inactive
COC(=O)CCCCCN1C(=O)NC(c2ccccc2)C(C(=O)OCc2ccccc2)=C1C (stereo unspecified)	inconclusive: 31.6 µM [inhibitor, single point]
CCOC(=O)Cn1c(S(=O)(=O)Cc2ccccc2Cl)nc(-c2ccccc2)c1-c1ccccc1	inactive
O=C(CCS(=O)(=O)c1ccc(Br)cc1)Nc1ccccn1	inconclusive: 39.8 µM [inhibitor, single point]
O=C(CCc1ccccc1)Nc1ccc(NC(=O)C2CCCCC2)nc1	inconclusive: 28.2 µM [inhibitor, single point]
COC(=O)c1cc(Cl)c(NC(=O)/C=C/c2ccc(Cl)cc2)cc1OC	inconclusive: 35.5 µM [inhibitor, partial curve]
Cc1nc(N2CCCCC2C)c2c(C)c(C(=O)Nc3ccccc3C(F)(F)F)sc2n1 (stereo unspecified)	inconclusive: 28.2 µM [inhibitor, partial curve]
COc1ccc(-c2cc(C(F)(F)F)nc(N3CCCCCC3)n2)cc1	inconclusive: 28.2 µM [inhibitor, partial curve]
c1ccc(-c2nnc(-c3ccccn3)c(-c3ccccn3)n2)nc1	inactive
Cc1[nH]c(=O)[nH]c(=O)c1NC(=O)c1sc2nc3c(C)cccc3cc2c1N	inconclusive: 28.2 µM [inhibitor, partial curve]
Cc1ccc(-c2noc(N=O)c2NO)cc1	inconclusive: 25.1 µM [inhibitor, single point]
Cc1ccc2cc(CN(CC3CCCO3)C(=O)NC3CCCCC3)c(=O)[nH]c2c1C (stereo unspecified)	inconclusive: 35.5 µM [inhibitor, single point]
